Results published in PubChem BioAssay AID743255 (National Center for Advancing Translational Sciences (NCATS), 2014).
Hit rate of the full screen: of about 390,000 compounds, about 910 (0.23%) were called active. Another 5% or so got no clear call; they are omitted. Calls come from the whole dose curve; as a rule, active = well fitted inhibition curve with a large enough effect; inconclusive = small, poorly fitted or top-dose-only effect; inactive = no such curve, though single readings can be large or run the other way. Only a part is listed here, and it is no random draw.

target: Ubiquitin carboxyl-terminal hydrolase 1 (Homo sapiens) (UniProt O94782); assay: Inhibitors of USP1/UAF1: Primary Screen; details: recombinant USP1/UAF1, Ub-Rhodamine cleavage fluorescence; activity change, negative = inhibition: at 57.1 µM (top of the series); note: nearly all actives have a fitted effect of over 60% in size
UniProt O94782, sequence (O94782 whole entry, looked up): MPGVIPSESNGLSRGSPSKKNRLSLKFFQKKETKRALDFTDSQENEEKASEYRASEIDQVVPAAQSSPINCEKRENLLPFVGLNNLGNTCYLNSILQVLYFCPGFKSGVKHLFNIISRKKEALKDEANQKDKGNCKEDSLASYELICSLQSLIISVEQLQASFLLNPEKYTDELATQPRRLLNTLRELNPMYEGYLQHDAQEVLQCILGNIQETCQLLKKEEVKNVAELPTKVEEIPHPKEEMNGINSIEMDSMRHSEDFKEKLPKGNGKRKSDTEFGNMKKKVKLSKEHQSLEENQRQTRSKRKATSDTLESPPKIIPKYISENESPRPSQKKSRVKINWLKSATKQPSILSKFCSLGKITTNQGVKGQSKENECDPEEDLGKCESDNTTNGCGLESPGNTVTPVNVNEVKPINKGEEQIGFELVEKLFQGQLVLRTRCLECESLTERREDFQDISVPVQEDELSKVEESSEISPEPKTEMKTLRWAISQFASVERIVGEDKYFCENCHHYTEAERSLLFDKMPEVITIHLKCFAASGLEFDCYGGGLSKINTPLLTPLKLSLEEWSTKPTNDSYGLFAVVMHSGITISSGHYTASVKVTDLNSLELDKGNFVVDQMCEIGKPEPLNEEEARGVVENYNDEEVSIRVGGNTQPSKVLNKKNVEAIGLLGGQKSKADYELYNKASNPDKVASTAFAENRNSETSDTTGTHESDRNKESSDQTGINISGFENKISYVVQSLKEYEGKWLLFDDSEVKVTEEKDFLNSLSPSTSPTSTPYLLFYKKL
Method in brief: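 USP1/UAF1 complex at 1 nM was preincubated with compound for 15 min at room temperature, then Ub-Rho substrate (150nM final) was added. Fluorescence (480/540 nm) was read kinetically, 6 reads every 60 seconds.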
% is set by controls: 0 for no effect and ±100 for the full control effect; potency is the fitted concentration of half-maximal effect.

Activity change, negative = inhibition, inactive:
CCOC(=O)N1CCC(Nc2c(NCCN3CCN(c4ccccc4F)CC3)c(=O)c2=O)CC1 -5.04%
CCN(CC)c1ccc(NC(=O)CCS(=O)(=O)c2cccc3nsnc23)c(C)c1 -13.2%
Cc1cccc(NC(c2cccc(Cl)c2)c2ccc3cccnc3c2O)n1 (stereo not drawn) 43.2%
OC[C@H]1OC(O)[C@@H](O)[C@@H](O)[C@@H]1O (stereo partly drawn) -17.5%
C[C@H](CO)N1C[C@H](C)[C@@H](CN(C)C(=O)NC2CCCCC2)OCc2cnnn2CCCC1=O -15.1%
C=CCC[C@@H](Cc1ccc(F)cc1)C(=O)OC[C@H](Cc1c[nH]c2ccccc12)NC(=O)[C@H](CC=C)CC(=O)NCCO -9.24%
COC(C[C@H]1O[C@@H]1[C@H](O)COCc1ccccc1)OC -4.6%
COc1ccc(N=C/C=C2/C=C(c3ccccc3)OC(C)(C)O2)cc1 -19.7%
COc1cc(CN(C(=O)c2cc3ccccc3oc2=O)C2CCS(=O)(=O)C2)cc(OC)c1OC (stereo not drawn) -25.4%
CC(C)OC(=O)N(C)C[C@@H]1OCc2cnnn2CCCC(=O)N([C@@H](C)CO)C[C@H]1C -29%
C=CCOC(=O)C1=C[C@@H](c2csc3ccccc23)C[C@@H](OCc2ccc(CO)cc2)O1 -29%
C=CC[C@@H](CC(=O)N[C@@H](CO)Cc1ccccc1)C(=O)N[C@H](COC(=O)[C@@H](CC=C)Cc1ccc(F)cc1)C(C)(C)C -1.93%
C/C(N)=C(/C#N)C(=O)CSc1nnc(Nc2c(C)cccc2C)s1 -13.4%
Cc1cc(C)c(NC(=O)C(C)c2cccc(C(=O)c3ccccc3)c2)c(C)c1 (stereo not drawn) -11%
CCOc1ccc2nc(/N=C/c3nc(-c4ccc(Br)cc4)oc3O)sc2c1 138%
O=C1NC(=O)/C(=C/c2ccccc2OCc2ccccc2)S1 -12.2%
CCOc1cc(/C=C(\C#N)C(=O)Nc2cccc(C(=O)O)c2)ccc1OCc1ccc(Br)cc1 -32.9%
C[C@H](CO)N1C[C@H](C)[C@H](CN(C)C(=O)Nc2ccccc2F)OCc2cnnn2CCCC1=O -19.4%
CC(C)OC(=O)N(C)C[C@@H]1OCc2cnnn2CCCC(=O)N([C@H](C)CO)C[C@@H]1C -16%
O=C(NCc1ccccc1Cl)c1ccc2c(c1)NC(=O)C(CS(=O)(=O)Cc1ccc(F)cc1Cl)N2 (stereo not drawn) 57.6%
CCN1C(=O)c2ccccc2S(=O)c2ccc(C(=O)NCc3ccc(OC)cc3)cc21 (stereo not drawn) -20%
Cc1c(Cl)cccc1NC(=O)CC1Oc2ccccc2NC1=O (stereo not drawn) -5.79%
COC(=O)[C@@H]1C[C@H]1[C@@H](NS(=O)(=O)c1ccccc1)c1ccccc1 -19.2%
COc1ccc(C2CC(=O)c3cc(-c4nc(-c5ccc(Cl)cc5)c(C)s4)c(=O)[nH]c3C2)cc1 (stereo not drawn) -29.1%
COc1ccc(NS(=O)(=O)c2cc([N+](=O)[O-])ccc2N/N=C\c2c(C)[nH]c3ccccc23)cc1 -16.2%
N#C/C(=C\c1ccccn1)c1nc2ccccc2s1 424%
Cc1ccccc1-n1c(/C=C/c2c(C)n(C)c3ccccc23)nc2ccccc2c1=O 88.3%
O=C(Nc1cccc(NC(=O)c2ccc(Br)o2)c1)c1ccccc1 -11.6%
COc1ccc([C@H]2C[C@@H](n3cc(-c4ccc(F)cc4)nn3)[C@H](O)CN2Cc2cccs2)cc1 -5.47%
O=C1N[C@@H](Cc2ccccc2)COC(=O)[C@H](Cc2ccc(F)cc2)CC/C=C/C[C@@H]1CC(=O)N(CCO)Cc1ccccc1 -22.8%
O=C1NCCOC(=O)[C@H](Cc2ccc(F)cc2)C/C=C\C[C@H]1CC(=O)N(CCO)Cc1ccccc1 -25.8%
CCOC(=O)N(C)C[C@@H]1OCc2cnnn2CCCC(=O)N([C@@H](C)CO)C[C@@H]1C -25.9%
O=C(NC1CC1)C1=C[C@@H](c2csc3ccccc23)C[C@@H](OCc2ccc(CO)cc2)O1 -5.05%
Cc1ccc(NC(=O)Cn2cc(C(=O)C3CC3)c3ccccc32)cc1 -10.2%
CCO[C@H]1OC(C(=O)Nc2ccccc2)=C[C@@H](C)[C@@H]1CCCO -7.62%
Cc1cccc(N(C)S(=O)(=O)c2ccc(-c3cc(C)no3)s2)c1 1.85%
C[C@]12C(=O)N(c3cccc(F)c3)C(=O)N1[C@@H]1c3ccccc3OC[C@@H]1[C@H]2c1ccccc1 -14.4%
O=C(CCSCc1ccc(Cl)cc1)N1CCN(c2ccccc2F)CC1 1.08%
COc1ccc(N2CCN(C(=O)c3nn(C)c4c3CS(=O)(=O)c3ccccc3-4)CC2)cc1 -26.1%
C[C@H]1CCC[C@@]2(O[C@H](CCO)C[C@H](O)[C@H]2O)O1 -16.5%
COc1ccccc1C(=O)N/C(=C\c1ccc(Br)cc1)C(=O)N1CCCC1 2.01%
C[C@@H]1CN([C@@H](C)CO)C(=O)CCCn2nncc2CO[C@@H]1CN(C)S(=O)(=O)c1ccc(-n2cccn2)cc1 -11.1%
Nc1ccn(C2CC(O)C(CO)O2)c(=O)n1 (stereo not drawn) -15.3%
CC(=O)c1ccc(NC(=O)C2=CC(c3cccs3)=NS(=O)(=O)N2C)cc1 -9.87%
C[C@@H]1CN([C@H](C)CO)C(=O)c2cc(Br)cnc2O[C@H]1CN(C)Cc1ccccc1 29.1%
OCC[C@H]1C[C@@H](O)[C@H](O)[C@]2(CCCCO2)O1 -15.2%
CC(C)(C)OC(=O)C[C@@H]1C/C=C\C[C@@H](CC(=O)N[C@H](CO)Cc2ccccc2)C(=O)NC[C@@H](c2ccccc2)OC1=O -30.8%
C=CCC[C@@H](Cc1ccc(F)cc1)C(=O)OC[C@@H](Cc1c[nH]c2ccccc12)NC(=O)[C@@H](CC=C)CC(=O)NCCO -22.6%
O=C(NCc1nc2ccccc2[nH]1)C1=C[C@H](c2csc3ccccc23)C[C@H](OCc2ccc(CO)cc2)O1 -27%
O=C(C[C@@H]1C/C=C\CC[C@H](Cc2ccc(F)cc2)C(=O)OC[C@@H]2CCCN2C1=O)N[C@H](CO)Cc1ccccc1 -17.8%
C[C@@H]1CN([C@@H](C)CO)C(=O)CCCn2nncc2CO[C@H]1CN(C)S(=O)(=O)c1ccc(Cl)cc1 -23.8%
COc1ccc([C@@H]2CC(=O)c3c(O)cc(O[C@@H]4OC(CO[C@@H]5OC(C)[C@H](O)[C@@H](O)[C@H]5O)[C@@H](O)[C@H](O)[C@H]4O)cc3O2)cc1O (stereo partly drawn) 3.75%
CC(C)c1ccc(CN(C(=O)c2cc3ccccc3oc2=O)C2CCS(=O)(=O)C2)cc1 (stereo not drawn) -11.1%
CCc1ccc(Nc2nc(N)nc(CSc3nc4ccccc4s3)n2)cc1 -18.9%
NC1=NC[C@@H](Cc2ccc(O)cc2)N1CCc1cccc2ccccc12 -22%
COc1ccc(/C=C2\SC(=S)N(CCCC(=O)Nc3cc(C)on3)C2=O)cc1OC 40.6%
C[C@H](CO)N1C[C@H](C)[C@@H](CN(C)S(=O)(=O)c2ccccc2C#N)OCc2cnnn2CCCC1=O -17.8%
C[C@H]1CN(S(=O)C(C)(C)C)[C@H](CCO)/C1=C\c1ccccc1 (stereo partly drawn) 1.12%
CC(=O)Oc1c(/C=C(\C#N)C(N)=O)[nH]c2ccccc12 33%
COC(=O)c1cc2sccc2n1Cc1nc(-c2ccc(Cl)cc2)oc1C -10.9%
COCCCNC(=O)c1ccc2c(=O)n(Cc3ccc(OC)cc3)c(=O)[nH]c2c1 -17.1%
O=C(C1CCCN(S(=O)(=O)c2ccc(Br)s2)C1)N1CCN(c2ccccc2)CC1 (stereo not drawn) -12.8%
C[C@@H]1CN([C@H](C)CO)C(=O)CCCn2nncc2CO[C@H]1CN(C)C(=O)c1cc(-c2ccccc2)on1 -21%
COC(=O)[C@H]1[C@H]2C[C@H]3c4[nH]c5ccccc5c4CCN3C[C@@H]2CC[C@@H]1O -25.7%
Cc1cccc(N=Nc2c(O)[nH]c3ccc(F)cc23)c1 31.5%
C[C@@H]1CCC[C@@]2(O[C@@H](CCO)C[C@@H](O)[C@@H]2O)O1 2.3%
C[C@@H]1C=C(C(=O)NC2CC2)O[C@H](OCc2ccc(CO)cc2)C1 -16.3%
Cc1cccc(N2CCN(C(=O)c3nn(C)c4c3CS(=O)(=O)c3ccccc3-4)CC2C)c1 (stereo not drawn) -8.79%
Cc1ccc(-n2c(-c3ccco3)nc3c(cnn3-c3ccc(C)cc3)c2=O)cc1 -10.7%
CCN1C(=O)[C@H]2[C@@H](c3ccc(SC4CCCCC4)cc3)N3CCCC[C@@]3(C(=O)OC)[C@H]2C1=O -8.61%
CCn1c(C)cc(C=C2C(=O)c3ccccc3C2=O)c1C 314%
COc1ccc([C@@H]2CC(=O)c3c(O)cc(O[C@@H]4O[C@H](CO[C@@H]5O[C@@H](C)[C@H](O)[C@@H](O)[C@H]5O)[C@@H](O)[C@H](O)[C@H]4O)cc3O2)cc1O -0.42%
C=CC[C@@H](CC(=O)N(CCO)Cc1ccccc1)C(=O)N[C@H](COC(=O)[C@@H](CC=C)CC(=O)OC(C)(C)C)c1ccccc1 -7.8%
C(=N\NC1=Nc2cccc3cccc1c23)/c1ccccc1 38.3%

Potency, active:
CCc1ccc(S(=O)(=O)/N=C2\C=C(Nc3ccc(O)cc3)C(=O)c3ccccc32)cc1 10 µM
O=C(O)CCCNc1cc(N2CCN(C(=O)c3ccco3)CC2)c2noc3c2c1C(=O)c1ccccc1-3 28.2 µM
NC1=C(Cl)C(=O)c2ccc(S(N)(=O)=O)cc2C1=O 1.26 µM
O=C1C=C(Nc2ccccc2O)c2ccccc2C1=O 17.8 µM
Cn1cccc1/C=C1\CC(C(C)(C)C)C/C(=C\c2cccn2C)C1=O (stereo not drawn) 11.2 µM
COc1ccccc1/C=C/C=C1\Oc2c(ccc(O)c2CN2CCN(CCO)CC2)C1=O 31.6 µM
N#Cc1ccc(/C=C\c2nccc3c2[nH]c2ccccc23)cc1 22.4 µM
N#C/C(=C\c1ccc(N2CCCCC2)o1)C(=O)Nc1cccc(Br)c1 28.2 µM
O=C(O)c1cc(O)c2c(c1)[C@H]([C@H]1c3cc(C(=O)O)cc(O)c3C(=O)c3c(O[C@@H]4O[C@H](CO)[C@@H](O)[C@H](O)[C@H]4O)cccc31)c1cccc(OC3O[C@H](CO)[C@@H](O)[C@H](O)[C@H]3O)c1C2=O (stereo partly drawn) 7.08 µM
